From the BET-seq Pho4 binding data (Le et al. 2018)
This is one part of the list. These are noisy estimates, calculated here from bound and input reads.

target: T1, Pho4 (S. cerevisiae) (UniProt P07270); assay: relative binding free energy (BET-seq); higher = weaker binding; details: reference: library average
T1 sequence: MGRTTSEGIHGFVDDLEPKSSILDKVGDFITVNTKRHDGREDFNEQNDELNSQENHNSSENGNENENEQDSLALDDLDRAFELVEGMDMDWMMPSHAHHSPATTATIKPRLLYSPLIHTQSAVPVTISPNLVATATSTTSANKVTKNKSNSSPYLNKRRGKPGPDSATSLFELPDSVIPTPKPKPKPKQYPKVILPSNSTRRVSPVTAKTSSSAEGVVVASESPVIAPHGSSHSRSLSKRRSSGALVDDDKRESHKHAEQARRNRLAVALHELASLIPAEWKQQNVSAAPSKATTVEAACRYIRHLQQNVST

Sequence	relative binding free energy [kcal/mol]
ATTGACACGTGAATGG	0.23
GATTGCACGTGTTTAG	0.2
ATTGTCACGTGATAGT	0.15
CTTTGCACGTGTATGG	0.06
ATTGGCACGTGTGATC	0.04
GGGTGCACGTGGCTAG	-0.07
TATAGCACGTGCGTAG	-0.1
GTATTCACGTGTAGCT	0.31
CGTAGCACGTGTTAGG	-0.04
GACGTCACGTGATGGT	0.27
GTCTGCACGTGTGTAA	0.1
GGGGGCACGTGGCTTT	-0.13
GTGCACACGTGTATGG	0.01
GAGGTCACGTGATGGG	0.37
ATTAACACGTGGTTGA	-0.07
ATATGCACGTGTGGGT	-0.02
GTTAGCACGTGCTTGT	-0.1
TTCAACACGTGGTTTA	-0.14
ATGGCCACGTGGGCTG	-0.26
GGTTTCACGTGATAGC	0.51
TGATTCACGTGGGGCC	0.11
TATCGCACGTGTTTGA	-0.06
TTGTACACGTGCCTTT	0.07

Sequence	relative binding free energy [kcal/mol]
CGATGCACGTGGTGGA	-0.07
GGGTACACGTGCTCGT	0.12
GAGTACACGTGTGTGC	0.16
TTTTACACGTGCTATG	0.05
ATTTGCACGTGTCTTA	-0.04
AGCGGCACGTGGGGGG	-0.25
GGTGTCACGTGTGCGG	0.15
GGGAGCACGTGGTTAC	-0.02
TACTTCACGTGTTTTT	0.28
GACGACACGTGGGGGG	-0.19
GAGTACACGTGTGTTG	0.05
TAGTGCACGTGTTTGA	-0.01
GTTTTCACGTGTGTCT	0.35
GAGAGCACGTGCTTGG	-0.11
ACCGGCACGTGCAGGG	0.06
TAGTTCACGTGGCTCG	0.28
GTTCTCACGTGTACGT	0.28
CGGTTCACGTGTGTTT	0.33
TCTTACACGTGGTTGT	0.14
GGGGCCACGTGTAGTT	-0.05
GTCTGCACGTGTCGTT	0.22
TATCGCACGTGTGTTG	-0.1
CGTTCCACGTGGGGTT	-0.28

Sequence	relative binding free energy [kcal/mol]
AGTAGCACGTGGAGCA	0.1
AGATTCACGTGATCGT	0.33
ATACTCACGTGGGTCG	0.1
CGGTTCACGTGTGGAG	0.33
GGTTGCACGTGTGTAG	-0.01
AGGTTCACGTGGGACA	0.18
AGGGGCACGTGTACGT	-0.11
TGAATCACGTGGGGTA	0.02
AAAAGCACGTGGGGAT	-0.11
TGGGTCACGTGGCGAA	-0.12
AGGTTCACGTGGTGTG	0.16
ATGTGCACGTGGGTTT	-0.13
TTGGGCACGTGATCGC	-0.02
TTTAACACGTGATTAA	0.23
CATATCACGTGGGGGG	-0.08
CTTTCCACGTGTGTAT	0.13
TTTATCACGTGTGCTG	0.13
GGCTTCACGTGCTTGG	0.38
GGCTTCACGTGGTGAG	0.25
GGTGGCACGTGAATTT	0.32
CTGTTCACGTGTGGAC	0.4
TTGAGCACGTGTATCG	-0.11
AAATACACGTGTGGGG	0.07

Sequence	relative binding free energy [kcal/mol]
GGCTTCACGTGTGCTG	0.26
GTGCACACGTGCCGGT	0.15
AGTTTCACGTGGGAGA	0.31
GATGTCACGTGTCAGG	0.13
GGTGGCACGTGGGAAC	-0.04
TTGCTCACGTGTAGAA	0.28
TCTTTCACGTGAAATT	0.44
TCCTTCACGTGTGGTG	0.37
TGGAGCACGTGTAGGT	-0.04
AGAAGCACGTGATGTT	0.08
ATGTGCACGTGGGGTA	-0.13
TTTAGCACGTGTGATT	0.02
GAGGTCACGTGGATCT	0.31
GGATGCACGTGGGTAC	-0.04
GACGCCACGTGTGTTG	0.06
CAATGCACGTGGTTTT	0
TATGGCACGTGTTTTT	-0.01
TGTGTCACGTGAGCGC	0.24
GTAGTCACGTGTTGGT	0.28
TGGATCACGTGGAGTG	0.09
TTTTTCACGTGTTATG	0.33
GGAGACACGTGGTTAT	0.02
GTATTCACGTGGCTGG	0.14

Sequence	relative binding free energy [kcal/mol]
GGTGCCACGTGATTGT	0.14
GTAGACACGTGTAGGT	0.11
TTCTGCACGTGGTTAA	-0.17
TTTTACACGTGTTAGC	0.2
TATTGCACGTGTTCAG	-0.05
TGGCGCACGTGGAGTA	-0.12
ATGGTCACGTGTGTGC	0.12
GGGAACACGTGGTTGG	-0.04
ATTATCACGTGAAATT	0.38
GGAAACACGTGGGTGA	-0.19
TGCGTCACGTGGGAAT	-0.05
TCGGGCACGTGAAAGG	0.24
AAGAGCACGTGGGCTC	-0.01
TCGATCACGTGTTGGT	0.21
GGGGGCACGTGGGAGA	-0.15
AAGTACACGTGTTGGG	-0.05
GGGCTCACGTGTGAAT	0.35
AATCTCACGTGGTTGG	0.24
TATCGCACGTGGGGGT	-0.22
CGGTGCACGTGTATGA	-0.07
AGAGACACGTGGTGCG	0.01
GGTAACACGTGTGTAT	0.09
GTGGGCACGTGAAGTC	0.33
